Test results reported in the supplement of paper PMC3334620.
In all, about 33,000 sequences were measured (“E-score (-0.5 to 0.5)”: median about -0.032, highest 2% from about 0.36 on). Some of the results follow.

target: T1, Sko1 (UniProt Q02100); experiment: PBM E-score (8-mer binding enrichment) (E-score (-0.5 to 0.5)); higher = stronger / more preferred TF binding; most listed sequences are background and not binding sites; settings: protein concentration: 200 nM; construct: GST-full length
T1 sequence: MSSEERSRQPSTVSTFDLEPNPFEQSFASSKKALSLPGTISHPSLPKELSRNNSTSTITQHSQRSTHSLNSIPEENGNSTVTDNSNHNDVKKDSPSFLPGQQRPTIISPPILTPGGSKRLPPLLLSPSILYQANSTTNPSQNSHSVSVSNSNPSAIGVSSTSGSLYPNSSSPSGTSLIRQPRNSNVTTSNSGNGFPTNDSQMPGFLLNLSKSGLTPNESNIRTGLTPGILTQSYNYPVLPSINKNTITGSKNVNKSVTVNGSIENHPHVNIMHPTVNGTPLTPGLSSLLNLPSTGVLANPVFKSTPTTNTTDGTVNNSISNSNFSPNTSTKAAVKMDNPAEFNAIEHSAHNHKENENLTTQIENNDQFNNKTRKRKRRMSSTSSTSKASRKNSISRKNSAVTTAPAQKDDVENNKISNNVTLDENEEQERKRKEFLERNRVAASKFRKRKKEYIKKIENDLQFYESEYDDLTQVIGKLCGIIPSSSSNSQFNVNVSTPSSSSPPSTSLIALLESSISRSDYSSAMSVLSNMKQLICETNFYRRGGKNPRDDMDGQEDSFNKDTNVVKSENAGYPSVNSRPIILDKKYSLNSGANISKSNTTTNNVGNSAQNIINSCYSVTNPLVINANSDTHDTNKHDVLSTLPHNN
Method: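 Universal 'all 10-mer' protein binding microarrays (Agilent AMADID 015681) probed with GST-tagged S. cerevisiae TFs (full-length or DBD) made by in vitro transcription/translation (PURExpress), about 100-200 nM. Bound TF was detected with fluorescent anti-GST. Each ungapped 8-mer (which stands for itself and its reverse complement) is scored by the PBM enrichment score (E-score), a modified Wilcoxon-Mann-Whitney statistic from -0.5 to +0.5, computed with the Universal PBM Analysis Suite. Scale: above 0.35 generally sequence-specific binding.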

| Sequence | PBM E-score |
| --- | --- |
| AAACATCA | 0.189 |
| GGGTCTAC | -0.00528 |
| GGTCAGGA | -0.245 |
| CTGTTAGA | -0.0627 |
| GGATAGCA | -0.0249 |
| CTTCCTAC | -0.225 |
| CTAACTTA | 0.00938 |
| ATAGTGTG | 0.0884 |
| GAACCAGC | -0.152 |
| GCACCTGC | -0.202 |
| CACGGATC | -0.1 |
| ACCTAAAT | 0.151 |
| ATCGCAGA | -0.0496 |
| ACTAAGCG | -0.0198 |
| ACCCTAAC | 0.0777 |
| GTGAGTGA | 0.0585 |
| GACTACAC | 0.0778 |
| ATCGTTTG | 0.0556 |
| AATGATAG | 0.233 |
| GCCAAAGC | -0.285 |
| TACCGACA | 0.0623 |
| AAATGGTC | -0.0521 |
| AAAGCCAT | 0.0868 |
| CGCATTCC | -0.316 |
| ATCTCAGC | -0.0484 |

| Sequence | PBM E-score |
| --- | --- |
| AACATCAG | 0.125 |
| CACGGCAA | -0.0387 |
| CACAGGGC | -0.0729 |
| CGTGCCCA | -0.0412 |
| TACGGAAA | 0.1 |
| ACGACACT | 0.182 |
| AGCCCATC | -0.212 |
| ACAGTCGC | -0.127 |
| CCGACCAA | -0.15 |
| GGGCAGCA | -0.276 |
| AGGCTCGA | 0.0161 |
| CCACTCTC | -0.23 |
| CTGTCGAC | -0.0259 |
| GTTAATAA | 0.189 |
| GCAAGACA | -0.105 |
| TGGCCCAA | -0.0707 |
| CCACGGCG | -0.0828 |
| CCGGTGGA | -0.297 |
| ACGAGTGG | -0.164 |
| AGTGATTG | -0.0807 |
| ATTCTAGA | 0.0481 |
| ACGTCGTA | 0.399 |
| AAGGTAGG | -0.0031 |
| AAACACTG | 0.0659 |
| AACGGTCT | -0.2 |

| Sequence | PBM E-score |
| --- | --- |
| GGACGCCC | -0.382 |
| CAGGTCAA | -0.151 |
| TGGTGAAA | 0.0222 |
| GAGGAAAA | -0.077 |
| CGATCATA | 0.202 |
| CCAGGTCG | -0.248 |
| TAAAACCA | 0.0242 |
| ATCTGCGC | -0.0753 |
| ACGCGCTA | 0.284 |
| GCATGCAA | -0.00617 |
| CAGGCAAG | -0.0994 |
| CTTCAGTA | 0.113 |
| CTGCAGCA | -0.155 |
| CGCCGCCC | -0.187 |
| ATCCCACA | -0.194 |
| ATTCAGCC | -0.0566 |
| ACGGGGTC | -0.332 |
| ACGGCGCA | -0.0201 |
| CGAAAGAC | 0.0404 |
| GGTGTAAC | 0.0191 |
| ACATGAGG | -0.0474 |
| CATTAGTC | -0.139 |
| ACCGTTGG | -0.126 |
| CTTTTACA | 0.249 |
| GCAGGCCA | -0.188 |

| Sequence | PBM E-score |
| --- | --- |
| AGGGTCTA | 0.0287 |
| GAATATGA | 0.192 |
| CCCAAACG | -0.0802 |
| GAAAGAGC | 0.0403 |
| CCCACGGC | -0.145 |
| ATGCACGG | -0.154 |
| CGCTTCAG | -0.113 |
| GCACCTCA | 0.0472 |
| CATCTTAA | 0.191 |
| AAATGACG | 0.481 |
| CGAGGTAG | -0.329 |
| AACCTGAG | 0.0301 |
| CTCAACGC | -0.145 |
| AGTGCATC | 0.093 |
| ACAACCCA | 0.0415 |
| AAGGCGGA | -0.0927 |
| CGTCGACG | 0.0714 |
| GTAGTTGA | 0.173 |
| AAGGGAGG | -0.244 |
| ACGTTATA | 0.426 |
| CATGCGGA | -0.0617 |
| CCAGGATA | 0.0428 |
| ACACACAG | -0.0108 |
| AGTGCACC | -0.0677 |
| GTCTACTA | 0.108 |

| Sequence | PBM E-score |
| --- | --- |
| ACAACGGC | -0.193 |
| ATGATGAG | 0.275 |
| CGCACCCA | 0.0218 |
| CAGCACGC | -0.0149 |
| ACCCTCGC | -0.172 |
| CATGAGAG | 0.0936 |
| ATACAATA | 0.153 |
| GTGGATCA | -0.15 |
| AGGCGTTG | -0.017 |
| ACACCTCC | -0.195 |
| CTGATGAC | 0.318 |
| ACCAATCT | -0.0508 |
| GCGGATGA | 0.0872 |
| AAGCAACT | 0.0356 |
| CTATCGCC | -0.13 |
| AACCTCCC | -0.154 |
| CGGTGATA | 0.00538 |
| GGAATTTA | 0.154 |
| CAGATTCC | -0.248 |
| CCGTTAGC | -0.15 |
| CGCTAATC | -0.0615 |
| AAAAAACG | 0.244 |
| AAATCGTG | 0.248 |
| TACCGCGA | 0.161 |
| GTGAAAGA | 0.187 |

| Sequence | PBM E-score |
| --- | --- |
| CTGACCTC | -0.296 |
| AGTAGTTG | -0.0764 |
| CACCTCAC | -0.0158 |
| ATCAGAAG | -0.0145 |
| AGGCAGCG | -0.253 |
| GCCGGACC | -0.115 |
| CTTGTATC | -0.0193 |
| TGAGTGAA | -0.179 |
| GATGTCCA | 0.162 |
| CAAGGAAG | -0.196 |
| GAGATACC | -0.039 |
| GTAGGGCA | -0.0329 |
| ATCCCTTG | -0.149 |
| GCTGTAAC | -0.0515 |
| AATCACCC | -0.0732 |
| AGAGGGGC | -0.257 |
| AAAGATAC | 0.215 |
| ACCGCCTC | -0.312 |
| AAGGTCGC | -0.219 |
| ACAGATCT | -0.0706 |
| CTATTCAG | -0.0536 |
| AAGGCAAC | -0.0193 |
| CAGATTTA | -0.00359 |
| ACGGGACA | -0.265 |
| AAGATCCT | -0.0622 |

| Sequence | PBM E-score |
| --- | --- |
| GCCCAAGA | -0.164 |
| AATTGAGG | -0.0812 |
| ATATATCA | 0.133 |
| ACCAAACT | 0.042 |
| ACCATGAA | -0.0406 |
| GTGCATAA | 0.0663 |
| GTGGTCCA | -0.0431 |
| CGGGCGCC | -0.112 |
| ATGCCAGA | -0.0478 |
| AGTTGGCC | -0.245 |
| GCTTCCAC | -0.147 |
| CATTCAAC | 0.0545 |
| ATTAGATG | 0.287 |
| TTAAAGAA | 0.0838 |
| TAAGGGAA | 0.108 |
| CATCCGGC | -0.35 |
| CCTCGGCC | -0.306 |
| ACACCCAC | 0.0936 |
| CGTTATAC | 0.321 |
| AGTAACTA | 0.146 |
| CAAATAAG | -0.106 |
| TCACTAGA | 0.114 |
| CTTAGTCC | -0.141 |
| CGTGTGGA | 0.00704 |
| TAGCCGAA | 0.0251 |

| Sequence | PBM E-score |
| --- | --- |
| TACCGCTA | -0.0889 |
| AGACACTC | -0.109 |
| AGAACCGC | 0.0875 |
| CAGTAATG | 0.133 |
| GTCGCCGA | -0.0463 |
| GCAGTAAC | 0.0218 |
| AACCCGTC | -0.00481 |
| ATACTCTA | 0.0678 |
| AAAAACTA | 0.232 |
| GAGACACA | -0.039 |
| ACTTCAAC | 0.0487 |
| AGCGACAG | -0.155 |
| AGCATGGA | -0.15 |
| CAAAATAG | -0.0965 |
| AAAAGTCT | -0.0141 |
| CATCAAGA | 0.0814 |
| AACGTAAC | 0.441 |
| TGAATACA | 0.132 |
| ACTCCCTG | -0.158 |
| GGGGGCAA | -0.094 |
| CAGACCTC | -0.14 |
| AAGTCGTA | 0.233 |
| ATATATCG | 0.149 |
| CAGGGCAA | -0.11 |
| AGTCAACA | 0.0814 |

| Sequence | PBM E-score |
| --- | --- |
| GTACAATA | 0.323 |
| TACGGCGA | -0.11 |
| GGCGGCGA | -0.165 |
| AGAGCATC | -0.0889 |
| CCTATAAC | -0.00903 |
| CCGAGTAC | -0.0735 |
| ACTTGGCT | -0.248 |
| AGCTATTC | 0.0128 |
| CACCCGAG | -0.211 |
| GGCGCTCA | -0.222 |
| CTAACAGA | -0.00958 |
| GATCTCCC | -0.337 |
| ATGCAGTC | -0.107 |
| ACAACAAT | -0.0368 |
| AATAAAGG | -0.156 |
| TGAGTTAA | 0.191 |
| AGCTCCTG | -0.188 |
| AGAAGCCG | -0.142 |
| CCCAAGAG | -0.276 |
